# Source: the supplement of paper PMC8728848
# Some of the results follow.
# Legend:
# Experiment in all cases: glycan array binding signal (z-score within array); higher = stronger binding
# Details in all cases: glycan notation: IUPAC condensed, linker removed
# Gal(a1-3)GalNAc = molecular target: Gal(a1-3)GalNAc
# Method in brief: (§1)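 From the Consortium for Functional Glycomics database, 3228 arrays were curated, keeping only those whose protein sequence was available. Binding is given as a within-array Z-score averaged across arrays sharing a protein sequence and across linkers. Negative Z-scores can be read as non-binding.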
# [1] = molecular target: Gal(a1-3)[Gal(a1-4)]Gal(b1-4)GlcNAc
# Method in brief: as §1
# Gal(a1-4)Gal(b1-4)Glc = molecular target: Gal(a1-4)Gal(b1-4)Glc
# Method in brief: as §1
# Gal(a1-4)Gal(b1-4)GlcNAc = molecular target: Gal(a1-4)Gal(b1-4)GlcNAc
# Method in brief: as §1
# [2] = molecular target: Gal(a1-4)Gal(b1-4)GlcNAc(b1-3)Gal(b1-4)Glc
# Method in brief: as §1
# Gal(a1-4)GlcNAc = molecular target: Gal(a1-4)GlcNAc
# Method in brief: as §1
# Gal(a1-6)Glc = molecular target: Gal(a1-6)Glc
# Method in brief: as §1
# Gal(b1-2)Gal = molecular target: Gal(b1-2)Gal
# Method in brief: as §1
# Gal(b1-3)Gal = molecular target: Gal(b1-3)Gal
# Method in brief: as §1
# Gal(b1-3)Gal(b1-4)GlcNAc = molecular target: Gal(b1-3)Gal(b1-4)GlcNAc
# Method in brief: as §1
# [3] = molecular target: Gal(b1-3)Gal(b1-4)GlcNAc(b1-2)Man(a1-3)[Gal(b1-3)Gal(b1-4)GlcNAc(b1-2)Man(a1-6)]Man(b1-4)GlcNAc(b1-4)GlcNAc
# Method in brief: as §1
# Gal(b1-3)GalNAc = molecular target: Gal(b1-3)GalNAc
# Method in brief: as §1
# [4] = molecular target: Gal(b1-3)GalNAc(a1-3)[Fuc(a1-2)]Gal(b1-4)Glc
# Method in brief: as §1
# [5] = molecular target: Gal(b1-3)GalNAc(a1-3)[Fuc(a1-2)]Gal(b1-4)GlcNAc
# Method in brief: as §1
# [6] = molecular target: Gal(b1-3)GalNAc(b1-3)Gal(a1-4)Gal(b1-4)Glc
# Method in brief: as §1
# [7] = molecular target: Gal(b1-3)GalNAc(b1-4)Gal(b1-4)Glc
# Method in brief: as §1
# [8] = molecular target: Gal(b1-3)GalNAc(b1-4)[Neu5Ac(a2-3)]Gal(b1-4)Glc
# Method in brief: as §1
# Gal(b1-3)GlcNAc = molecular target: Gal(b1-3)GlcNAc
# Method in brief: as §1
# [9] = molecular target: Gal(b1-3)GlcNAc(b1-2)Man(a1-3)[Gal(b1-3)GlcNAc(b1-2)Man(a1-6)]Man(b1-4)GlcNAc(b1-4)GlcNAc
# Method in brief: as §1
# [10] = molecular target: Gal(b1-3)GlcNAc(b1-2)Man(a1-3)[Gal(b1-3)GlcNAc(b1-2)Man(a1-6)]Man(b1-4)GlcNAc(b1-4)[Fuc(a1-6)]GlcNAc
# Method in brief: as §1
# [11] = molecular target: Gal(b1-3)GlcNAc(b1-3)Gal(b1-3)GlcNAc
# Method in brief: as §1
# [12] = molecular target: Gal(b1-3)GlcNAc(b1-3)Gal(b1-4)Glc
# Method in brief: as §1
# [13] = molecular target: Gal(b1-3)GlcNAc(b1-3)Gal(b1-4)GlcNAc
# Method in brief: as §1
# [14] = molecular target: Gal(b1-3)[Fuc(a1-4)]GlcNAc
# Method in brief: as §1
# [15] = molecular target: Gal(b1-3)[Fuc(a1-4)]GlcNAc(b1-2)Man(a1-3)[Gal(b1-3)[Fuc(a1-4)]GlcNAc(b1-2)Man(a1-6)]Man(b1-4)GlcNAc(b1-4)GlcNAc
# Method in brief: as §1
# [16] = molecular target: Gal(b1-3)[Fuc(a1-4)]GlcNAc(b1-2)Man(a1-3)[Gal(b1-3)[Fuc(a1-4)]GlcNAc(b1-2)Man(a1-6)]Man(b1-4)GlcNAc(b1-4)[Fuc(a1-6)]GlcNAc
# Method in brief: as §1
# [17] = molecular target: Gal(b1-3)[Fuc(a1-4)]GlcNAc(b1-3)Gal(b1-3)[Fuc(a1-4)]GlcNAc
# Method in brief: as §1
# [18] = molecular target: Gal(b1-3)[Fuc(a1-4)]GlcNAc(b1-3)Gal(b1-4)GlcNAc
# Method in brief: as §1
# [19] = molecular target: Gal(b1-3)[Fuc(a1-4)]GlcNAc(b1-3)Gal(b1-4)[Fuc(a1-3)]GlcNAc
# Method in brief: as §1
# [20] = molecular target: Gal(b1-3)[GlcNAc(b1-6)]GalNAc
# Method in brief: as §1
# [21] = molecular target: Gal(b1-3)[Neu5Ac(a2-6)]GalNAc
# Method in brief: as §1
# [22] = molecular target: Gal(b1-3)[Neu5Ac(a2-6)]GlcNAc(b1-6)Gal(b1-4)Glc
# Method in brief: as §1
# [23] = molecular target: Gal(b1-3)[Neu5Ac(b2-6)]GalNAc
# Method in brief: as §1
# [24] = molecular target: Gal(b1-4)GalNAc(a1-3)[Fuc(a1-2)]Gal(b1-4)GlcNAc
# Method in brief: as §1
# [25] = molecular target: Gal(b1-4)GalNAc(b1-3)[Fuc(a1-2)]Gal(b1-4)GlcNAc
# Method in brief: as §1
# Gal(b1-4)Glc = molecular target: Gal(b1-4)Glc
# Method in brief: as §1
# Gal(b1-4)Glc6S = molecular target: Gal(b1-4)Glc6S
# Method in brief: as §1
# Gal(b1-4)GlcNAc = molecular target: Gal(b1-4)GlcNAc
# Method in brief: as §1
binder,measurement,setting,value
"DC-ASPGR (Homo sapiens), CLC10_HUMAN (protein) LDQNSKFQRDLVTLRTDFSNFTSNTVAEIQALTSQGSSLEETIASLKAEVEGFKQERQAVHSEMLLRVQQLVQDLKKLTCQVATLNNNASTEGTCCPVNWVEHQDSCYWFSHSGMSWAEAEKYCQLKNAHLVVINSREEQNFVQKYLGSAYTWMGLSDPEGAWKWVDGTDYATGFQNWKPGQPDDWQGHGLGGGEDCAHFHPDGRWNDDVCQRPYHWVCEAGLGQTSQESHVEPKSCDKTHTCPPCPAPELLGGPSVFLFPPKPKDTLMISRTPEVTCVVVDVSHEDPEVKFNWYVDGVEVHNAKTKPREEQFNSTYRVVSVLTVLHQDWLNGKEYKCKVSNKGLPSSIEKTISKAKGQPREPQVYTLPPSQEEMTKNQVSLTCLVKGFYPSDIAVEWESNGQPENNYKTTPPVLDSDGSFFLYSRLTVDKSRWQEGNVFSCSVMHEALHNHYTQK",glycan array binding signal (z-score),Gal(a1-3)GalNAc,-0.213
same,glycan array binding signal (z-score),[1],-0.314
same,glycan array binding signal (z-score),Gal(a1-4)Gal(b1-4)Glc,-0.257
same,glycan array binding signal (z-score),Gal(a1-4)Gal(b1-4)GlcNAc,-0.137
same,glycan array binding signal (z-score),[2],-0.182
same,glycan array binding signal (z-score),Gal(a1-4)GlcNAc,-0.289
same,glycan array binding signal (z-score),Gal(a1-6)Glc,-0.302
same,glycan array binding signal (z-score),Gal(b1-2)Gal,-0.225
same,glycan array binding signal (z-score),Gal(b1-3)Gal,-0.213
same,glycan array binding signal (z-score),Gal(b1-3)Gal(b1-4)GlcNAc,-0.145
same,glycan array binding signal (z-score),[3],-0.216
same,glycan array binding signal (z-score),Gal(b1-3)GalNAc,-0.252
same,glycan array binding signal (z-score),[4],-0.082
same,glycan array binding signal (z-score),[5],-0.014
same,glycan array binding signal (z-score),[6],0.292
same,glycan array binding signal (z-score),[7],-0.168
same,glycan array binding signal (z-score),[8],1.09
same,glycan array binding signal (z-score),Gal(b1-3)GlcNAc,-0.177
same,glycan array binding signal (z-score),[9],-0.062
same,glycan array binding signal (z-score),[10],-0.221
same,glycan array binding signal (z-score),[11],-0.275
same,glycan array binding signal (z-score),[12],-0.21
same,glycan array binding signal (z-score),[13],-0.285
same,glycan array binding signal (z-score),[14],-0.199
same,glycan array binding signal (z-score),[15],0.17
same,glycan array binding signal (z-score),[16],-0.15
same,glycan array binding signal (z-score),[17],-0.187
same,glycan array binding signal (z-score),[18],-0.19
same,glycan array binding signal (z-score),[19],-0.199
same,glycan array binding signal (z-score),[20],-0.204
same,glycan array binding signal (z-score),[21],-0.118
same,glycan array binding signal (z-score),[22],-0.087
same,glycan array binding signal (z-score),[23],-0.25
same,glycan array binding signal (z-score),[24],-0.198
same,glycan array binding signal (z-score),[25],-0.278
same,glycan array binding signal (z-score),Gal(b1-4)Glc,-0.238
same,glycan array binding signal (z-score),Gal(b1-4)Glc6S,-0.228
same,glycan array binding signal (z-score),Gal(b1-4)GlcNAc,-0.253
